Test results taken from patent publication EP0131315A2, “Nasal preparations comprising anticholinergic quaternary ammonium salts” (ISTITUTO DE ANGELI S.p.A., priority 1983, dated 1985).
“And” between values parts separate entries of the source, which are not always exact repeats. Identical values can stand only once. This continues a long series; more values of the same kind are listed elsewhere.

Assay: Urinary excretion (bioavailability) after intravenous, oral and nasal administration in the rat; drug in urine determined by muscarinic receptor binding assay
Assay type: in vivo, male Sprague-Dawley rats
Details: 2 mg/rat
Description: As a representative drug of this class of compounds N-cyclopropylmethylscopolamine bromide was employed in the method and in the compositions according to the present invention. The bioavailability of this compound after administration by nasal and oral route has been examined and then compared by the following general method. The investigated drug was administered in equal doses by the nasal, oral and intravenous route. 6, 12 and 24 hours after administration the quantitative excretion into the urine for any of the routes of administration was studied. The total amount of the drug excreted during the investigated time intervals was expressed as percentage of the intravenously eliminated amount, considering the latter value as an equivalent for 100% bioavailability.
In detail the following studies have been carried out. For each experiment 10 male Sprague-Dawley rats, weighing 280+ 20g have been used. For the i.v. administration rats fasted for 18 hours were anaesthetized by intraperitoneal sodium pentobarbital solution 2 ml/kg corresponding to 60 mg/kg/rat. A 4% solution of the drug in buffered saline (pH=7.4) was injected into the femoral vein ([…] corresponding to 2 mg of the active ingredient). For the oral administration 18 hours fasted and conscious rats received an 0.2% solution of the drug in saline by means of a stomach tube (1 ml/rat corresponding to 2 mg of the active principle). For the nasal administration the investigated compounds, for example N-cyclopropylmethyl scopolamine bromide, was administered to 18 hours fasted and as above described anaesthetized rats at a dose of 2 mg/rat.
This dose corresponds either to 25µl of saline (4% solution) or 5 mg of a 20% gel introduced into both nasal cavities by means of micropipette. After the administration by any route the animals were transfered into metabolic cages and received 3 ml of water by stomach tube. The urine was collected 6,12 and 24 hours after administration and the excreted drug was determined with the following original method which is based on the binding affinity of the drugs to their pharmacological receptors. […] It follows from this that knowing the affinity of the drugs it is possible to assay the concentration of the drugs in biological fluids. For this a suitable in vitro receptor preparation and a radio ligand that can bind specifically to the receptor and can be displaced by the test compound is needed. In the present invention tritiated N-methyl- scopolamine (^3H-NMS) in a final concentration of 3.10^-10M that occupies 50% of the muscarinic receptors was employed. As in vitro receptor preparation we used a homogenate from rat cerebral cortex diluted 1:3000 in 20 mM HEPES, 100 mM NaCl and 10 mM MgCl2 (pH 7.4). After incubation of ^3H-NMS with the receptor preparation receptor bound ligand was separated from free ligand by centrifugation and the amountof the receptor bound ligand was measured as radioactivity (dpm) in the pellet.

C[N+]1(CC2CC2)C2CC(OC(=O)C(CO)c3ccccc3)CC1C1OC12 (centres unmarked) [N-cyclopropylmethylscopolamine bromide]
amount of the compound found in the urine (intravenous, hours 0-6, mean of 10 rats, 360 min): 23.34 percentage of the total administered dose
amount of the compound found in the urine (intravenous, hours 0-24, mean of 10 rats, 1440 min): 26.52 percentage of the total administered dose
amount of the compound found in the urine (intravenous, hours 6-12, mean of 10 rats, 720 min): 2.24 percentage of the total administered dose
amount of the compound found in the urine (intravenous, hours 12-24, mean of 10 rats, 1440 min): 0.94 percentage of the total administered dose
amount of the compound found in the urine (nasal, gel, hours 0-6, individual rats, 360 min): 1.08 percentage of the total administered dose and 2.31 percentage of the total administered dose and 2.20 percentage of the total administered dose
amount of the compound found in the urine (nasal, gel, hours 0-6, mean of 10 rats, 360 min): 2.39 percentage of the total administered dose
amount of the compound found in the urine (nasal, gel, hours 0-24, individual rats, 1440 min): 3.05 percentage of the total administered dose and 2.82 percentage of the total administered dose and 6.86 percentage of the total administered dose and 5.59 percentage of the total administered dose
amount of the compound found in the urine (nasal, gel, hours 0-24, mean of 10 rats, 1440 min): 6.06 percentage of the total administered dose
amount of the compound found in the urine (nasal, gel, hours 6-12, individual rats, 720 min): 1.00 percentage of the total administered dose and 2.18 percentage of the total administered dose and 2.35 percentage of the total administered dose
amount of the compound found in the urine (nasal, gel, hours 6-12, mean of 10 rats, 720 min): 2.36 percentage of the total administered dose
amount of the compound found in the urine (nasal, gel, hours 12-24, individual rats, 1440 min): 0.05 percentage of the total administered dose and 0.74 percentage of the total administered dose and 2.37 percentage of the total administered dose and 1.04 percentage of the total administered dose
amount of the compound found in the urine (nasal, gel, hours 12-24, mean of 10 rats, 1440 min): 1.31 percentage of the total administered dose
amount of the compound found in the urine (nasal, solution, hours 0-6, mean of 10 rats, 360 min): 5.63 percentage of the total administered dose
amount of the compound found in the urine (nasal, solution, hours 0-24, mean of 10 rats, 1440 min): 6.10 percentage of the total administered dose
amount of the compound found in the urine (nasal, solution, hours 6-12, mean of 10 rats, 720 min): 0.38 percentage of the total administered dose
amount of the compound found in the urine (nasal, solution, hours 12-24, mean of 10 rats, 1440 min): 0.09 percentage of the total administered dose
amount of the compound found in the urine (oral, hours 0-6, mean of 10 rats, 360 min): 0.27 percentage of the total administered dose
amount of the compound found in the urine (oral, hours 0-24, mean of 10 rats, 1440 min): 0.37 percentage of the total administered dose
amount of the compound found in the urine (oral, hours 6-12, mean of 10 rats, 720 min): 0.08 percentage of the total administered dose
amount of the compound found in the urine (oral, hours 12-24, mean of 10 rats, 1440 min): 0.02 percentage of the total administered dose
